Laboratory results taken from the supplement of paper PMC10338343.
± gives the standard deviation. In all, about 5,500 sequences were measured (“pre-steady-state target cleavage rate”: median about 0.1, highest 2% from about 0.64 on). This is a selection; strong and weak results do not stand in their true shares.

Each sequence was assayed on MIWI (PIWIL1) piRISC loaded with piRNA #2 (30 nt) (assay: pre-steady-state target cleavage rate (min^-1); MIWI and MILI are mouse PIWI proteins and EfPiwi is from a freshwater sponge; tags in brackets are library labels; higher = faster piRNA-guided slicing of the target). Conditions: guide: piRNA #2 5'p-UUAGGUAACCCAGUAGAUCCAGAGGAAUUC; auxiliary factor: 500 nM mouse GTSF1.
Procedure, shortened: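 Active affinity-purified piRISC (1 nM) loaded with one synthetic guide was mixed with a transcribed, DNA-blocked target RNA library (0.1 nM), with or without 500 nM GTSF1 partner protein, in HEPES–potassium acetate buffer at 33 °C for 0–8 or 0–960 min. Uncleaved targets were sequenced, normalised to depth and to weakly complementary targets, and pooled across three trials, with k3 capped at 0.0001 min^-1. The pre-steady-state cleavage rate was determined with a burst-and-steady-state fit.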

Sequence	pre-steady-state target cleavage rate
CAUUUCCUCUGCAUCUACUGGGUUACCUAA	0.509 ± 0.04
GAAUUCCUCUGGAUGUAGUGGGUUACCUAA	0.0963 ± 0.016
CUAUUCCUCUGGACCUACUGGGUUACCUAA	0.139 ± 0.02
CUUAUCCCCUGGAUCUACUGGGUUACCUAA	0.423 ± 0.024
CUUAUCCUCUGGAUCCACUGGGUUACCUAA	0.248 ± 0.038
CUUAAGCUCUCGAUCUACUGGGUUACGUAA	0.516 ± 0.034
CUUAAGGUCUGGAUCAACUGGGUUUCCUAA	0.0708 ± 0.014
CUUUUCCUGUGGAUCUACUGGGAUACCUAA	0.28 ± 0.026
CUUAAGCUCUGGAUCUACUGGGUUUCCAAA	0.0329 ± 0.009
CUUAACCUCUGGCAUCUACUGGGUUACCUAA	0.117 ± 0.028
CUUAACCUCUGGAUCUACUCGGUUACGUAA	0.0848 ± 0.023
CUUUUCCACUGGAUCUUCUGGGUUACCUAA	0.371 ± 0.038
CUUUUCCUCUGGAUCUAUUGGGUUACCUAA	0.271 ± 0.036
CAAUUCCUCUGGAUCUACUGGGUAUCCUAA	0.196 ± 0.045
CUAUUCCUCUGGAUCUAGUGGGUUACCUUA	0.12 ± 0.018
CUUAAGCUCUGGAUCUACUGGGUUUCCUAA	0.1 ± 0.016
GAAUUCCACUGGAUCAACUGGGUUACCUAA	0.634 ± 0.052
CAAUUCCUCUGGUUCUAGUGGGUUACCUAA	0.303 ± 0.034
CUUUUCGUCUGGAUCUAGUGGGUUACCUAA	0.0486 ± 0.0092
CUUAAGGACUGGAUCUACUGGGUGUACCUAA	0.106 ± 0.052
CUAUUCCUCUGGAUCUACUGGGUUUCGUAA	0.275 ± 0.048
CUUAACCUCUUGGAUCUACUGGGUUACCUAA	0.23 ± 0.022
CUUAAGCUCUGCAUCUACUGGGUUUCCUAA	0.069 ± 0.017
CUUAUCCUCUUGGAUCUACUGGGUUACCUAA	0.331 ± 0.036

Sequence	pre-steady-state target cleavage rate
CUAUUCCAGUGGAUCUACUGGGUUACCUAA	0.556 ± 0.05
CAAUUCCUCUGGACCUACUGGGUUACCUAA	0.213 ± 0.032
CUUAACCUCCUGGAUCUACUGGGUUACCUAA	0.275 ± 0.028
GUAUUCCUCUGGAUCUACUGGGAUACCUAA	0.0903 ± 0.026
CUUAAGGUCUCGAUCUUCUGGGUUACCUAA	0.0684 ± 0.01
CUAUUCCUCUGGAACUAGUGGGUUACCUAA	0.259 ± 0.033
CUGUUCCUCUGGAUCUACUGGGUUACCUAA	0.0633 ± 0.028
GAAUUCCUCUGCAUCUACUGGGAUACCUAA	0.233 ± 0.029
CUUAACCUCUGGAUCUACACCGUUACCUAA	0.0655 ± 0.0085
CUUUACCUCUCGAUCUACUGGGUUACCUAA	0.47 ± 0.033
CUUAACCUCUGGAUCUUCUGGGUUACGUAA	0.316 ± 0.039
CUUAAGCUCUGGAUCAACUGGGUUAGCUAA	0.0953 ± 0.019
CUUUUCCUCUGGAUCUACUGCGUUACCUUA	0.331 ± 0.038
GAAUUCCUCUGGAUCUACUGGGUUACAUAA	0.64 ± 0.057
CUUAACCUCUGGAUCUACUGGGUUACCAUA	0.274 ± 0.038
CUUAAGGUCUGGAUCUACUGGCUUACCUUA	0.0232 ± 0.0079
CUUAUCCUCUGGUUCUACUGCGUUACCUAA	0.455 ± 0.04
CUUUUCCUCUGGAUCGUACUGGGUUACCUAA	0.00562 ± 0.0048
CUUAUCCUCAGGAUCUUCUGGGUUACCUAA	0.279 ± 0.044
CUUAAGCUCUGGUUCUUCUGGGUUACCUAA	0.137 ± 0.011
CUUAAGGAGUGGAUCUACUGGGUUAUCCUAA	0.0611 ± 0.016
GAAUUCCUCUGGAUCUACUGGGUUCACCUAA	0.343 ± 0.064
CUUAAGCACUGGAUCUACAGGGUUACCUAA	0.138 ± 0.011
CUUAAGCUCUGCAUCUAGUGGGUUACCUAA	0.0982 ± 0.01

Sequence	pre-steady-state target cleavage rate
GAAUUCCUGUGGAUCAACUGGGUUACCUAA	0.4 ± 0.026
CUUAAGCUCUCGAUCUACUGGGUUACCUAA	0.272 ± 0.026
CUAAUCCUCUGGAUCUACUGGGUUUCCUAA	0.358 ± 0.063
CAAUUCCUUCUGGAUCUACUGGGUUACCUAA	0.525 ± 0.05
CUUAAGCACUGGAUCUACUGGGUUUCCUAA	0.193 ± 0.035
CUUUUGCUCUGGAUCUAGUGGGUUACCUAA	0.0614 ± 0.0085
GAAUUCCUCUGGAUCUAGUGGGUUACGUAA	0.164 ± 0.02
CUUUUCCUCUUGAUCUACUGGGUUACCUAA	0.705 ± 0.039
CUUAUCCUCUGGUAUCUACUGGGUUACCUAA	0.376 ± 0.049
CUUUUCCUCUGGUUCUACAGGGUUACCUAA	0.273 ± 0.029
GAAUUCCUCUGGAUCUACUGGUUUACCUAA	0.212 ± 0.025
CUUAAGCUCUGGAUCUACUGGGUUACCUAAA	0.0903 ± 0.016
CUUUUCCUCUGCAUCUACUGGCUUACCUAA	0.113 ± 0.011
CUUAAGGAGAGGUUCUACUGGGUUACCUAA	0.00782 ± 0.0025
CUAUUCCUCUGGAUCUACUGCGUUACCUUA	0.355 ± 0.061
CUUAACGUCUGGAUCUACUGGCUUACCUAA	0.0738 ± 0.014
CUAUUCCUCUGGAUCUUCAGGGUUACCUAA	0.186 ± 0.025
GAAUUCCUCUGGAUCUACUGGGUUAGGUAA	0.395 ± 0.095
CUAUUCCUCUGGAUCUAGUCGGUUACCUAA	0.00623 ± 0.0038
CUUUUCCAUCUGGAUCUACUGGGUUACCUAA	0.413 ± 0.042
CUUAACCUCUGGAUCUACUGGGUUCCCUAA	0.128 ± 0.021
CUUUUCCUCAGGAUCUACUGGGUUACCAAA	0.326 ± 0.055
CUUAAGGUCUGGAUCUUCUGGGUUUCCUAA	0.0215 ± 0.0063
CUUAAGGUCUGGUAGUACUGGGUUACCUAA	0.00771 ± 0.0077

Sequence	pre-steady-state target cleavage rate
CUUAACCUCUGGAUCUACUGGGUUACCUUA	0.176 ± 0.025
CUUAAGGAGUGGAUCUACUGGGGUACCUAA	0.017 ± 0.0046
CUUAAGCUCUGGAAGUACUGGGUUACCUAA	0.218 ± 0.02
CUUAACCUCUGGAUCUAGUGGGUUACGUAA	0.165 ± 0.019
CUUAAGCUCUGCAUCUACUGGGAUACCUAA	0.113 ± 0.016
CUUAAGCUCUGGAUCUACUGGGUAACCUAA	0.0515 ± 0.013
CUUAAGCUCUGGAUCUACUCGGUUACCAAA	0.0451 ± 0.016
CUUUUCCACUGGAUCUACUGGGUUUCCUAA	0.45 ± 0.055
CUUAAGGAGACCAUCUACUGAGUUACCUAA	0.00468 ± 0.0026
CUUAUCCAGAGGAUCUACUGGGUUACCUAA	0.0636 ± 0.011
CUUAAGCUGUGGAUCUACUGGGUUACCUAA	0.19 ± 0.043
CUUAAGGAGUGGUUCUACUGGGUUACGUAA	0.132 ± 0.025
CUUAUCCUCUGGAUCUACUGGCUUACCAAA	0.0983 ± 0.028
CUUAUCUCUGGAUCUACUGGGUUACCUAA	0.164 ± 0.026
CUUAAGGUCUGGAUCUGCUGGGUUACCUAA	0.272 ± 0.034
CUUAAACUCUGGAUCUACUGGGUUACCUAA	0.0774 ± 0.019
CAAUUUCCUCUGGAUCUACUGGGUUACCUAA	0.517 ± 0.064
CUUAAGCUCUGGAUCUACUGGGUUACUUAA	0.338 ± 0.031
CUUUUCCCUGGAUCUACUGGGUUACCUAA	0.408 ± 0.036
CUUUUGCUCUGGAUCAACUGGGUUACCUAA	0.144 ± 0.021
CUUAAGGAGUGGAUGUACUGCGUUACCUAA	0.0246 ± 0.014
GAUUUCCUCUGGAUCAACUGGGUUACCUAA	0.139 ± 0.032
CUUAACCUCUGGAUCUACUGGGUUUCCUUA	0.107 ± 0.02
CUUAAGCUCUGCAACUACUGGGUUACCUAA	0.116 ± 0.016

Sequence	pre-steady-state target cleavage rate
CUUAUCCUCUUGAUCUACUGGGUUACCUAA	0.535 ± 0.032
GAAUUCCUCUGGAUCUACUGGGUUACCUAA [g2:g30:cont:t1A]	0.299 ± 0.053
CUUUUCCUCAGGAUCUUCUGGGUUACCUAA	0.402 ± 0.066
CUUAACCUCUGGAUCUUCUGGGUAACCUAA	0.0409 ± 0.0084
CUUAACCACUGGAUGUACUGGGUUACCUAA	0.328 ± 0.03
CUUUUCCUCUGGAACUACUGGCUUACCUAA	0.167 ± 0.023
GAAUUCCUCGUGGAUCUACUGGGUUACCUAA	0.208 ± 0.032
CUAUUCCUGUGGAUCUACUGGGUUAGCUAA	0.144 ± 0.037
CUAUUCCUCUGGAUCUACUGGGUUACUAA	0.299 ± 0.072
CUUAACCUCACCAUCUACUGGGUUACCUAA	0.0839 ± 0.016
CUUAAGGUCUGGAUCAACUCGGUUACCUAA	0.0177 ± 0.015
CUUAAGGAGUGGAUCUACUGGGUCUACCUAA	0.0444 ± 0.014
GAAUUCCUCUGGAUGUACUGGGUUUCCUAA	0.346 ± 0.067
CUAUUCCACUGCAUCUACUGGGUUACCUAA	0.419 ± 0.024
CUUAACCUCUGGAUCUACUGGGUUAGCUAA	0.201 ± 0.021
CUUAUCCUCUGGAUCUACAGGGUUACCUUA	0.224 ± 0.029
CUUUUCCUCUGGAUCUAUGGGUUACCUAA	0.0116 ± 0.0027
CUAUUCCUCUGGAUCAACUGGGUUAGCUAA	0.161 ± 0.037
CUUUUCCUCUGGAUGUACUGGGUUACGUAA	0.54 ± 0.041
CUUAAGGUCUGCGAUCUACUGGGUUACCUAA	0.272 ± 0.051
CUUAAGGUCUGGAACAACUGGGUUACCUAA	0.0581 ± 0.023
CUUAAGGAGAGGAUCUACUGCGUUACCUAA	0.0103 ± 0.0036
GAAUUCCUGUGGAACUACUGGGUUACCUAA	0.256 ± 0.052
CUUAAGGUCUGGAUUUACUGGGUUACCUAA	0.259 ± 0.032

Sequence	pre-steady-state target cleavage rate
GAAUUCCUGACGAUCUACUGGGUUACCUAA	0.234 ± 0.031
CUUAAGGACUGGAUCUACUGGGUAACCUAA	0.0365 ± 0.034
CUUAACGUCUGGAUCUACUGGGUAACCUAA	0.0915 ± 0.018
CUUUUCCACUCGAUCUACUGGGUUACCUAA	0.547 ± 0.033
CAAUUCCUCUGGAUCAUCUGGGUUACCUAA	0.332 ± 0.05
CUUUUCCACUGGAUCUACUGGGUUACCUAA	0.562 ± 0.05
CUUAAGCUCUGCAUCUACUCGGUUACCUAA	0.0373 ± 0.012
CUAUUCCUCUGGAUCUUCUGGGUUUCCUAA	0.19 ± 0.042
CUUAUCCACUGGAUCUACAGGGUUACCUAA	0.244 ± 0.021
CAACUUCCUCUGGAUCUACUGGGUUACCUAA	0.28 ± 0.046
CUUAUCACUCUGGAUCUACUGGGUUACCUAA	0.203 ± 0.027
CUUAAGGAGUGGAUCUAGUGGGUUACCUUA	0.00368 ± 0.0032
CAAUUGCUCUGGAUCUACUGGGUUACCUAA	0.229 ± 0.045
CUUAAGGUCUCGAUCAACUGGGUUACCUAA	0.083 ± 0.014
CUUAUCCUCUGGAUCUACUGGGUUACCUUAA	0.29 ± 0.042
CUUAAGGAGACCUAGAUGUGGCUUACCUAA	< 0.0001
CUUAAGGACUGGUUCUACAGGGUUACCUAA	0.0293 ± 0.013
CUAUUCCUCUGGAACUACUGGCUUACCUAA	0.137 ± 0.018
CUUUUGCUCUGGAUCUUCUGGGUUACCUAA	0.13 ± 0.016
CAAUUCCACUCGAUCUACUGGGUUACCUAA	0.798 ± 0.047
CUUAACCUCUGGAUCUACUGGGUUUCCAAA	0.0522 ± 0.015
CUAUUCUCUGGAUCUACUGGGUUACCUAA	0.308 ± 0.049
CUAUUCCUCUGGAUCUACACGGUUACCUAA	0.174 ± 0.02
CUAUUCCUCUGGAUCUCCUGGGUUACCUAA	0.233 ± 0.049
